# Assay results reported in a collection of fitness landscapes (doi:10.1016/j.celrep.2020.107928).
# The full ranking holds about 81,000 sequences; the median of “one-hybrid fitness for binding parS DNA” is about -0.17, and the highest 2% start at about 0.51. The list shows a part of the results.
# B1: Caulobacter ParB omega fusion; a variant is named by its letters at X, in order, B8GW30 (parent)
# chain: MESVVVGEPGMSEGRRGLGRGLSALLGEVDAAPAQAPGEQLGGSREAPIEILQRNPDQPRRTFREEDLEDLSNSIREKGVLQPILVRPSPDTAGEYQIVAGERAWRAAQRAGLKTVPIMVRELDDLAVLEIGIIENVQRADLNVLEEALSYKVLMEKFERTQENIAQTIGKSXSHVANXMRLLXLPDEVQSYLVSGELTAXHARAIAAAADPVALAKQIIEGGLSVRETEALARKAPNLSAGKSKGGRPPRVKDTDTQALESDLSSVLGLDVSIDHRGSTGTLTITYATLEQLDDLCNRLTRGI
# Variants of: B1
# Test: one-hybrid fitness for binding parS DNA (scaled: cognate 1, non-cognate 0); higher = stronger binding
# Settings: with parS DNA site
# Summary of the method: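 Fitness is the rescaled log change in variant-to-wild-type read ratio, measured by Illumina sequencing of plasmids before and after bacterial one-hybrid selection. The scale puts cognate at 1 and non-cognate at 0. Selection of Caulobacter ParB libraries, four specificity codons randomised, took place in E. coli USO with a HIS3 reporter, site 19 bp from the promoter, over 48 hours at 37°C on M9-minus-histidine with 0.1 mM IPTG and 5 mM 3-AT.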
row,Variant,one-hybrid fitness for binding parS DNA
1,KTDS,≤ 0.2
2,QMLL,≤ 0.2
3,DRKH,≤ 0.2
4,NRHL,≤ 0.2
5,KWAC,≤ 0.2
6,PTLW,≤ 0.2
7,TMSK,≤ 0.2
8,QQAQ,0.324
9,SLRG,≤ 0.2
10,GLYH,≤ 0.2
11,IYSP,≤ 0.2
12,PDKS,≤ 0.2
13,NKTR,≤ 0.2
14,VRAN,≤ 0.2
15,MTGV,≤ 0.2
16,IPQS,≤ 0.2
17,RYMP,≤ 0.2
18,EIKT,≤ 0.2
19,RPFI,≤ 0.2
20,LCTV,≤ 0.2
21,QDTR,≤ 0.2

row,Variant,one-hybrid fitness for binding parS DNA
1,YGVD,≤ 0.2
2,AFIR,≤ 0.2
3,VLIS,≤ 0.2
4,YHPI,≤ 0.2
5,QCMY,≤ 0.2
6,IINS,≤ 0.2
7,MERM,≤ 0.2
8,WFSL,≤ 0.2
9,PWPM,≤ 0.2
10,MHDS,≤ 0.2
11,EQFS,≤ 0.2
12,SDKY,≤ 0.2
13,ESEG,≤ 0.2
14,MCGW,≤ 0.2
15,PFRK,≤ 0.2
16,SNHW,≤ 0.2
17,SYTC,≤ 0.2
18,MMMF,≤ 0.2
19,RYVS,0.976
20,RKTI,≤ 0.2
21,SFRH,≤ 0.2

row,Variant,one-hybrid fitness for binding parS DNA
1,TEAN,≤ 0.2
2,VVSF,≤ 0.2
3,WWSS,≤ 0.2
4,WIWV,≤ 0.2
5,RMHH,0.274
6,QPGK,≤ 0.2
7,QAIS,≤ 0.2
8,RRDN,0.257
9,PGSD,≤ 0.2
10,HKRL,≤ 0.2
11,EPTG,≤ 0.2
12,GLTI,≤ 0.2
13,LHNP,≤ 0.2
14,GQDQ,≤ 0.2
15,TVIR,≤ 0.2
16,GMEL,≤ 0.2
17,INNR,≤ 0.2
18,IPPL,≤ 0.2
19,VLHL,≤ 0.2
20,DSHT,≤ 0.2
21,ACGI,≤ 0.2

row,Variant,one-hybrid fitness for binding parS DNA
1,RYFA,0.573
2,RQSS,0.979
3,LMNS,≤ 0.2
4,HTQE,≤ 0.2
5,SPMF,≤ 0.2
6,NSYN,≤ 0.2
7,AEFL,≤ 0.2
8,VQKR,≤ 0.2
9,SYSP,≤ 0.2
10,LWVW,≤ 0.2
11,FTRC,≤ 0.2
12,RAIY,0.36
13,AYML,≤ 0.2
14,PRYW,≤ 0.2
15,YMHR,≤ 0.2
16,HNPS,≤ 0.2
17,KIPY,≤ 0.2
18,RAWR,≤ 0.2
19,DAYR,≤ 0.2
20,TQCI,≤ 0.2
21,KCTS,≤ 0.2
